B1: GPR68, Q15743 (parent)
chain: MGNITADNSSMSCTIDHTIHQTLAPVVYVTVLVVGFPANCLSLYFGYLQIKARNELGVYLCNLTVADLFYICSLPFWLQYVLQHDNWSHGDLSCQVCGILLYENIYISVGFLCCISVDRYLAVAHPFRFHQFRTLKAAVGVSVVIWAKELLTSIYFLMHEEVIEDENQHRVCFEHYPIQAWQRAINYYRFLVGFLFPICLLLASYQGILRAVRRSHGTQKSRKDQIQRLVLSTVVIFLACFLPYHVLLLVRSVWEASCDFAKGVFNAYHFSLLLTSFNCVADPVLYCFVSETTHRDLARLRGACLAFLTCSRTGRAREAYPLGAPEASGKSGAQGEEPELLTKLHPAFQTPNSPGSGGFPTGRLA

The least precise scores are not listed. Two further conditions of the source, in which the scores hardly spread, are not listed. Read del as a deletion of the residues named and ins as an insertion between two positions. For some assays here: The concentration of ogerin is not given here.

Variants of B1 are the subject of data set [1]. Description: cAMP reporter score (Enrich2 score, wild type = 0); higher = more signal; HEK293T, FACS bins.
In data set [2] the parent is B1. The data set can be described thus: surface expression score (Enrich2 score, wild type = 0); higher = more signal; HEK293T, FACS bins.

31 variants from the GPR68 mutational scans of Howard et al. (2025) can be followed below.

With Y47N, the cAMP reporter score in data set [1] (pH 5.5) is -1.12; in data set [1] (pH 6), -1.69; in data set [1] (pH 6, modulator: ogerin), -0.506; in data set [1] (pH 6.5, modulator: ogerin) it was -1.91. Moreover, the surface expression score in data set [2] was -2.74.

Take Y47M: the cAMP reporter score in data set [1] (pH 5.5) amounted to 0.343; in data set [1] (pH 6) it was 0.125; in data set [1] (pH 6, modulator: ogerin), 0.658; in data set [1] (pH 6.5, modulator: ogerin), 0.218. For the same variant, the surface expression score in data set [2] was -0.686.

As for Y47K, the cAMP reporter score in data set [1] (pH 5.5) is -1.47; in data set [1] (pH 6) it was -1.44; in data set [1] (pH 6.5, modulator: ogerin), -1.96. In addition, the surface expression score in data set [2] is -3.63.

Turning to Y47L, the cAMP reporter score in data set [1] (pH 5.5) amounted to 0.48; in data set [1] (pH 6) it was 0.3; in data set [1] (pH 6, modulator: ogerin) it was 1.11; in data set [1] (pH 6.5, modulator: ogerin) it was 0.662. Moreover, the surface expression score in data set [2] was -0.297.

Turning to Y47W, the cAMP reporter score is 1.37 in data set [1] (pH 5.5); 0.611 in data set [1] (pH 6); 1.11 in data set [1] (pH 6, modulator: ogerin); 1.15 in data set [1] (pH 6.5, modulator: ogerin). Further, the surface expression score in data set [2] turned out to be 0.277.

With Y47V, the cAMP reporter score in data set [1] (pH 5.5) is 1.14; in data set [1] (pH 6, modulator: ogerin), 1.49; in data set [1] (pH 6.5, modulator: ogerin), -0.194.

As to Y47S, the cAMP reporter score in data set [1] (pH 5.5) is 0.546; in data set [1] (pH 6) it was 0.058; in data set [1] (pH 6, modulator: ogerin) it was 0.247; in data set [1] (pH 6.5, modulator: ogerin), 0.038. The surface expression score in data set [2] was -1.67.

Y47T: the cAMP reporter score in data set [1] (pH 5.5) was -0.023; in data set [1] (pH 6), -0.635; in data set [1] (pH 6, modulator: ogerin) it was 0.273; in data set [1] (pH 6.5, modulator: ogerin), 0.103. Further, the surface expression score in data set [2] was -1.39.

For the variant Y47P, the cAMP reporter score was -1.53 in data set [1] (pH 5.5); -1.58 in data set [1] (pH 6); -0.772 in data set [1] (pH 6, modulator: ogerin); -1.17 in data set [1] (pH 6.5, modulator: ogerin). Besides, the surface expression score in data set [2] was -2.01.

Take Y47R: the cAMP reporter score in data set [1] (pH 5.5) was -0.475; in data set [1] (pH 6), -1.02; in data set [1] (pH 6, modulator: ogerin), -0.182; in data set [1] (pH 6.5, modulator: ogerin), -1.01. Besides, the surface expression score in data set [2] is -2.62.

In the case of Y47_L48insGS, the cAMP reporter score was -1.42 in data set [1] (pH 5.5); -1.27 in data set [1] (pH 6); -1.36 in data set [1] (pH 6, modulator: ogerin); -0.874 in data set [1] (pH 6.5, modulator: ogerin). Also, the surface expression score in data set [2] is -2.06.

Take K51_A52insGS: the cAMP reporter score in data set [1] (pH 5.5) is -1.83; in data set [1] (pH 6), -0.762; in data set [1] (pH 6, modulator: ogerin) it was -2.36; in data set [1] (pH 6.5, modulator: ogerin), -1.23. Further, the surface expression score in data set [2] is -2.49.

For Q49S, the cAMP reporter score in data set [1] (pH 5.5) was -0.559; in data set [1] (pH 6), -0.989; in data set [1] (pH 6, modulator: ogerin), -0.978; in data set [1] (pH 6.5, modulator: ogerin), -1.85. Besides, in data set [2], the surface expression score is -1.43.

With Q49K, the cAMP reporter score in data set [1] (pH 5.5) was found to be 0.293; in data set [1] (pH 6) it was 2.1; in data set [1] (pH 6, modulator: ogerin), 0.23; in data set [1] (pH 6.5, modulator: ogerin), 2.56. Further, in data set [2], the surface expression score is -1.4.

Regarding Q49H, the cAMP reporter score in data set [1] (pH 5.5) was 0.648; in data set [1] (pH 6), 0.236; in data set [1] (pH 6, modulator: ogerin), 0.5; in data set [1] (pH 6.5, modulator: ogerin), 0.41. In data set [2], the surface expression score was -0.118.

For the variant Q49M, the cAMP reporter score in data set [1] (pH 5.5) is -0.084; in data set [1] (pH 6) it was -0.147; in data set [1] (pH 6, modulator: ogerin), -0.175; in data set [1] (pH 6.5, modulator: ogerin), 0.375. The surface expression score in data set [2] was found to be 1.26.

In the case of Q49D, the cAMP reporter score in data set [1] (pH 5.5) is -1.07; in data set [1] (pH 6), -0.67; in data set [1] (pH 6.5, modulator: ogerin), -0.553. The surface expression score in data set [2] was -2.95.

Regarding Q49T, the cAMP reporter score in data set [1] (pH 5.5) was -1.52; in data set [1] (pH 6) it was -1.84; in data set [1] (pH 6, modulator: ogerin), -1.52; in data set [1] (pH 6.5, modulator: ogerin), -0.905. Further, the surface expression score in data set [2] is -0.872.

Q49W: the cAMP reporter score was -0.115 in data set [1] (pH 5.5); -0.455 in data set [1] (pH 6); -0.091 in data set [1] (pH 6, modulator: ogerin); -0.326 in data set [1] (pH 6.5, modulator: ogerin). Also, in data set [2], the surface expression score was -1.68.

On to Q49L, for which the cAMP reporter score was -0.091 in data set [1] (pH 5.5); -0.802 in data set [1] (pH 6); -0.534 in data set [1] (pH 6, modulator: ogerin); -1.1 in data set [1] (pH 6.5, modulator: ogerin). Also, the surface expression score in data set [2] is 1.75.

As to Q49Y, the cAMP reporter score is -1.26 in data set [1] (pH 5.5); -0.561 in data set [1] (pH 6, modulator: ogerin); -1.58 in data set [1] (pH 6.5, modulator: ogerin). In addition, in data set [2], the surface expression score is -2.06.

For Q49E, the cAMP reporter score in data set [1] (pH 5.5) is -1.47; in data set [1] (pH 6), -1.35; in data set [1] (pH 6, modulator: ogerin), -2.02; in data set [1] (pH 6.5, modulator: ogerin), -1.44. In addition, the surface expression score in data set [2] is -0.889.

On to Q49F, for which the cAMP reporter score in data set [1] (pH 5.5) was -1.15; in data set [1] (pH 6) it was -0.724; in data set [1] (pH 6, modulator: ogerin) it was -1.27; in data set [1] (pH 6.5, modulator: ogerin), -1. The surface expression score in data set [2] is -1.79.

Turning to Q49C, the cAMP reporter score is -1.09 in data set [1] (pH 5.5); -0.675 in data set [1] (pH 6); -1.03 in data set [1] (pH 6.5, modulator: ogerin). Moreover, in data set [2], the surface expression score was found to be 0.125.

Consider Q49P, for which the cAMP reporter score was -0.43 in data set [1] (pH 5.5); -1.41 in data set [1] (pH 6); -1.94 in data set [1] (pH 6, modulator: ogerin); -1.19 in data set [1] (pH 6.5, modulator: ogerin). In data set [2], the surface expression score is -1.99.

With Q49I, the cAMP reporter score is -1.12 in data set [1] (pH 5.5); 0.04 in data set [1] (pH 6); -0.977 in data set [1] (pH 6, modulator: ogerin); -0.917 in data set [1] (pH 6.5, modulator: ogerin). Besides, in data set [2], the surface expression score is -0.987.

Q49A: the cAMP reporter score in data set [1] (pH 5.5) is 0.272; in data set [1] (pH 6), -0.158; in data set [1] (pH 6, modulator: ogerin), -0.216; in data set [1] (pH 6.5, modulator: ogerin), -0.002. Besides, the surface expression score in data set [2] was 0.202.

With Q49G, the cAMP reporter score was -1.09 in data set [1] (pH 5.5); -0.824 in data set [1] (pH 6); -1.73 in data set [1] (pH 6, modulator: ogerin); -1.44 in data set [1] (pH 6.5, modulator: ogerin). Besides, the surface expression score in data set [2] was -1.91.

On to Q49N, for which the cAMP reporter score in data set [1] (pH 5.5) was -0.111; in data set [1] (pH 6), -0.59; in data set [1] (pH 6, modulator: ogerin) it was 0.607; in data set [1] (pH 6.5, modulator: ogerin), -0.582. For the same variant, the surface expression score in data set [2] is -0.253.

For Q49R, the cAMP reporter score in data set [1] (pH 5.5) is 1.32; in data set [1] (pH 6), 1.95; in data set [1] (pH 6, modulator: ogerin) it was 0.737; in data set [1] (pH 6.5, modulator: ogerin) it was 1.73. Also, in data set [2], the surface expression score is -1.55.

Turning to L48_Q49insG, the cAMP reporter score is -1.32 in data set [1] (pH 5.5); -1.02 in data set [1] (pH 6); -1.95 in data set [1] (pH 6, modulator: ogerin); -0.751 in data set [1] (pH 6.5, modulator: ogerin). Besides, the surface expression score in data set [2] was -2.52.
